Data from ChEMBL document CHEMBL4888484, “Replenishing the malaria drug discovery pipeline: Screening and hit evaluation of the MMV Hit Generation Library 1 (HGL1) against asexual blood stage Plasmodium falciparum ,using a nano luciferase reporter read-out” (2022).
Out of some 150,000 compounds screened, about 540 (0.36%) showed an effect of 50% or more. This is one part of the list.

System: Plasmodium falciparum
Test: Primary screen in NF54 nanoGlo assay, in single point, at 2uM, 72h; a lower Z score goes with more inhibition
Type: functional, Erythrocyte
Details: timepoint 72 hour

| SMILES | % Inhibition [%] | Z score |
| --- | --- | --- |
| O=C(CCc1ccccc1F)N1CCC[C@H](S(=O)(=O)c2ccc(F)cc2)C1 | -11 | 1.44 |
| CC(C)CN1C(=O)[C@]2(CC(=O)Nc3c2cnn3-c2ccc(F)cc2)c2ccc(F)cc21 | -16 | 2.23 |
| O=C(c1ccc2nc(C3CC3)oc2c1)N1CCCC[C@@H]1CCn1ccnc1 | -6 | 0.71 |
| CCCS(=O)(=O)NC(c1ccc(OC)nc1)[C@H]1C[C@@H](O)C1 (some centres not stated) | 8 | -1.09 |
| O=C(CC1CC1)N1CC[C@H]2C(=O)N(Cc3ccc(F)cc3)CCN2CC1 | -11 | 1.44 |
| Cc1ccc(CN2CCCN(C(=O)Cn3cc(C#N)cn3)CC2)cc1 | -1 | 0.21 |
| O=C(Nc1cccnc1)NC1CCCC1 | -11 | 1.56 |
| CC[C@@H](C(=O)NCc1ccc(F)c(Cl)c1)N(C)CC | 9 | -1.41 |
| CC(C)[C@@](C)(O)CNCc1cn(C2CCCC2)nc1-c1ccccn1 | -7 | 0.77 |
| NC(=O)OCCNC(=O)C[C@@H]1C=CCC1 | -2 | 0.32 |
| COCCn1ccc(-c2cccc(-c3cccnc3)c2)n1 | -1 | 0.19 |
| C[C@H]1CCCN(C(=O)C2CCN(Cc3ccncc3)CC2)CC1 | 6 | -0.75 |
| CCCc1noc(Cn2nc(CC)nc2CC)n1 | -8 | 1.14 |
| O=S(=O)(CCN1CCOC2CCCCC21)c1ccccc1 (configuration not stated) | -5 | 0.7 |
| c1ccc(CCN2CCN(CCc3ccccn3)CC2)nc1 | -10 | 1.93 |
| CCNC(=O)N1CC[C@H](Oc2ccc3ccccc3n2)C1 | 57 | -3 |
| CN(Cc1cc2n(n1)CCNC2)C[C@]1(c2ccccc2)CC1(C)C | 1 | -0.11 |
| Cc1ccc(NCc2ccc(C#N)cc2)c2c1CC(C)(C)O2 | -5 | 0.65 |
| CN(C)S(=O)(=O)[C@@H]1CCN(C(=O)OCc2ccccc2)C1 | -5 | 0.79 |
| Cc1nn(CC(N)=O)c(C)c1-c1ccc2c(c1)OCCO2 | 6 | -1.21 |
| CNC(=O)Cc1nc(CN2C[C@H](C)Oc3ccc(OC)cc32)cs1 | -5 | 0.55 |
| CC[C@H](O)c1ccc(-c2cccc(-c3cc[nH]n3)c2)cc1 | -13 | 1.72 |

| SMILES | % Inhibition [%] | Z score |
| --- | --- | --- |
| CCN1CCN(c2nc3ncn(CC(=O)Nc4cc(C)ccc4OC)c(=O)c3s2)CC1 | -2 | 0.36 |
| COc1ccc2c(c1)N(CCc1ccncc1)CCO2 | -16 | 2.49 |
| Cc1cc(C)cc(NC(=O)N[C@@H](C)C(C)(C)C)c1 | -4 | 0.54 |
| O=C(c1nn(-c2ccccc2)c(=O)c2ccccc12)N1CCC[C@H]1c1ccc2c(c1)OCCO2 | 5 | -0.57 |
| O=C1[C@H]2CCCCN2C(=O)CN1Cc1ccccc1 | -20 | 1.83 |
| CC1(C)O[C@H]2[C@H](O)C[C@](OCc3ccccc3)(C(=O)NCc3ccco3)C[C@H]2O1 | -5 | 0.5 |
| Cc1cnn(CCC(=O)N2C3CCC2Cn2c(nn(Cc4ccccc4)c2=O)C3)c1 (configuration not stated) | -3 | 0.4 |
| CC(=O)NC1CN(C(=O)N[C@@H](C)Cc2ccccc2C(F)(F)F)C1 | -10 | 1.02 |
| Cc1cc(S(=O)(=O)Nc2cn(C)c(=O)n(C)c2=O)sc1Cl | 24 | -4.75 |
| CN(C)c1nc(N)nc(CN2CCN(CC(F)(F)F)c3ccccc32)n1 | 2 | -0.24 |
| Cc1nc([C@@H]2CCCCCN2C(=O)c2cc(C(C)C)nn2C)no1 | -21 | 2.23 |
| CCn1cc(CN2CCc3nocc3C2)cc1C#N | 0 | -0.03 |
| CCN(CC)S(=O)(=O)c1cc(C(=O)N2CCc3sccc3[C@@H]2C)n(C)c1 | 0 | -0.04 |
| O=C([C@H]1CCOc2ccccc2C1)N1CCN(c2ncccn2)CC1 | -7 | 1.12 |
| Cc1ccc(-c2csc(C3CN4CCCC4CO3)n2)s1 (configuration not stated) | -2 | 0.25 |
| CCOC(=O)N1CCN(c2nc3cc4c(cc3cc2CNCCc2c[nH]c3ccccc23)CCC4)CC1 | -5 | 0.69 |
| C[C@H]1CC(=O)Nc2ccccc2N1C(=O)CN1C(=O)c2ccccc2C1=O | -1 | 0.16 |
| CNc1nc(C(=O)N2CCc3[nH]c(-c4ccc(F)cc4F)nc3C2)cs1 | -15 | 2.2 |
| CC1CCC(C(C)C)c2[nH]nc(-c3ccccc3O)c21 (configuration not stated) | 3 | -0.32 |
| C[C@@H](Cc1ccc(Cl)cc1Cl)C(=O)N1CCCS1(=O)=O | 9 | -1.77 |
| CCOC(=O)c1nc2ccccc2nc1N1CCCN(C(=O)COCc2ccccc2)CC1 | 1 | -0.15 |
| CC(CC(O)c1ccco1)NC(=O)c1ccc(Br)cn1 (configuration not stated) | -9 | 0.83 |

| SMILES | % Inhibition [%] | Z score |
| --- | --- | --- |
| CCO[C@H]1CN(C(=O)Cc2nc(C)sc2C)C[C@@H]1O | 0 | 0.05 |
| CCOc1cc(C(=O)N2CCC(n3cn[nH]c3=O)CC2)on1 | -9 | 1.37 |
| O=C(NCC1(O)CCCCC1)c1cc(COc2cccc3cccnc23)on1 | -16 | 2.38 |
| CCN(CC)C(=O)N(C)CC1(O)CCCC1 | -1 | 0.25 |
| COc1ccc(C)cc1S(=O)(=O)N1CCC[C@@]2(CCN(C)C2)C1 | 4 | -0.86 |
| CCOC(=O)CNC(=O)N1CCN(Cc2nc3cccnc3n2-c2cc(C)cc(C)c2)CC1 | -10 | 1.32 |
| CCOc1ccc(Cl)cc1CCNC(=O)N1CCC[C@](C)(OC)CC1 | -3 | 0.28 |
| C[C@@H]1CN(c2ncccc2F)CC[C@@]1(O)C1CCOCC1 | -28 | 2.51 |
| CC(=O)N1c2c(C)cccc2[C@@H](C)CC1(C)C | 34 | -4.34 |
| CN1CC[C@]23C(=O)N(Cc4cn(nn4)CCCOc4cccc(c4)[C@@H]12)c1ccccc13 | -4 | 0.83 |
| COCC1CCN(C[C@H](O)c2cccc3ccccc23)CC1 | 6 | -0.69 |
| CS(=O)(=O)N1CCOc2ccc(CCC(=O)NCc3ccc(F)cc3)cc2C1 | -7 | 0.85 |
| CC1CN(c2ccc(F)cc2C#N)CC1N1CCOCC1 (configuration not stated) | -6 | 0.65 |
| Cc1nc2c(c(NCCCc3nc(=O)[nH][nH]3)n1)CCCC2 | -3 | 0.52 |
| Cc1ccc(C(=O)N2CC[C@H](CO)[C@H](NC(=O)c3cccnc3)C2)s1 | -8 | 1.06 |
| CCN1C(=O)c2c(C(=O)NCc3ccccc3Cl)ncn2C[C@@]1(C)C(=O)NC1CCCC1 | -10 | 1.97 |
| C1CCCN(Cc2nc([C@H]3CCOC3)no2)CC1 | -4 | 0.69 |
| Cc1nc(-c2csc(S(=O)(=O)Nc3ccc(F)c(F)c3)c2)sc1C(=O)N1CCCCC1 | 2 | -0.26 |
| Cc1nccnc1N1CC(C)(C)[C@@](C)(O)C1 | 2 | -0.39 |
| CCc1c(C(=O)N[C@@H](C)c2ncnn2CC)csc1C | 3 | -0.4 |
| Cc1ccc(Cc2nnc(NC(=O)[C@@H]3COc4ccccc4O3)o2)cc1C | -14 | 1.63 |
| NC(=O)c1nc(-c2ccc(Cl)cc2)nc2c1n(Cc1ccccc1)c(=O)n2-c1ccc(F)cc1 | -12 | 1.54 |

| SMILES | % Inhibition [%] | Z score |
| --- | --- | --- |
| CCNC(=O)CCCC(=O)NC(C)(C)Cc1ccccc1Cl | -6 | 0.92 |
| Cn1cccc1C(=O)N1CC2CN(S(=O)(=O)c3ccc(F)cc3)CC(C1)O2 | -9 | 1.59 |
| CCN=C(NC)NCCC1=CCCCC1 | -3 | 0.39 |
| O=C(O)c1n[nH]cc1CN1CCc2onc(-c3cccc4ccccc34)c2C1 | 4 | -0.62 |
| CC(C)c1ccnc(NCCCN2CCC[C@H](CO)C2)n1 | 1 | -0.15 |
| CCCc1cnc(C)nc1N1CCN[C@H](C(=O)NC2CC2)C1 | -3 | 0.33 |
| COCc1nc(CNc2cc(-c3ccco3)ccc2F)cs1 | -5 | 0.57 |
| O=C(Cn1cc(C(=O)c2ccncc2)c(=O)c2ccc(F)cc21)NCc1ccc(Cl)cc1 | 4 | -0.47 |
| CCCCC(=O)N1CCC(c2ccc(C)nc2)CC1 | -4 | 0.55 |
| Cc1csc(CNC(=O)C2CCCCC2)n1 | 5 | -0.73 |
| CCOC(=O)[C@H](Cc1ccccc1)N(C)CC(=O)Nc1ccc(CN2CCOCC2)cc1 | -8 | 0.72 |
| Cn1cccc1C(=O)CN1C(=O)c2ccccc2C1=O | 21 | -2.49 |
| COC1CCC(NC(=O)NCc2noc3c2CCCC3)CC1 (configuration not stated) | -14 | 1.42 |
| O=C1[C@@H](Nc2cc(F)cc(Br)c2)CCN1C1CC1 | -8 | 0.85 |
| CC(C)(O)C#Cc1cccc(C(=O)NCc2csc(N)n2)c1 | -5 | 0.79 |
| O=C(NC[C@]1(O)CCc2ccccc21)Nc1ccc(F)cn1 | -5 | 0.51 |
| Cc1ccccc1CCC(=O)N1C[C@H](C)[C@@](O)(C2CC2)C1 | -9 | 1.69 |
| C1CC(=C2CCC(NC3CCOC(C4CC4)C3)CC2)C1 (configuration not stated) | -11 | 1.44 |
| O=C(c1cnc2c(c1)CCCC2)N1CCC(Oc2cccc(Cl)c2)CC1 | -14 | 2.76 |
| O=C(NCC1(N2CCCCC2)CCOCC1)c1cc(F)cc(Cl)c1O | 2 | -0.19 |
